Laboratory results reported in patent publication US10004803B2, “Low, immune enhancing, dose mtor inhibitors and uses thereof” (Novartis AG, priority 2013, dated 2018).

Assay: Questionnaires on energy and exercise ability one year after dosing
Conditions: 0.5 mg daily cohort

## CO[C@H]1C[C@@H]2CC[C@@H](C)[C@@](O)(O2)C(=O)C(=O)N2CCCC[C@H]2C(=O)O[C@H]([C@H](C)C[C@@H]2CC[C@@H](OCCO)[C@H](OC)C2)CC(=O)[C@H](C)/C=C(\C)[C@@H](O)[C@@H](OC)C(=O)[C@H](C)C[C@H](C)/C=C/C=C/C=C/1C [RAD001, (1R,9S,12S,15R,16E,18R,19R,21R,23 S,24E,26E,28E,30S,32S,35R)-1,18-dihydroxy-12-{(1R)-2-[(1 S,3R,4R)-4-(2-hydroxyethoxy)-3-methoxycyclohexyl]-1-methylethyl}-19,30-dimethoxy-15,17,21,23,29,35-hexamethyl-11,36-dioxa-4-aza-tricyclo[30.3.1.04,9]hexatriaconta-16,24,26,28-tetraene-2,3,10,14,20-pentaone]
  self-reported energy and exercise ability as compared to placebo: increased energy and exercise ability
